The campaign covered roughly 310,000 compounds. About 14,000 (4.5%) showed an effect of 50% or more. The effect is printed as a negative number. Some of the results follow. Where a SMILES comes first, the peptide text is derived from it. [ ]: non-standard residue; d: D form. The star is where a group is joined. ξ: configuration not given here. ξN = NC(=O)CC(N)C(=O)O; Boc = CC(C)(C)OC(=O)*
What follows are compounds tested against human ether-à-go-go-related gene (hERG) potassium channel (human, UniProt Q12809) (assay: primary screen, population patch clamp on CHO cells stably expressing hERG).
human ether-à-go-go-related gene (hERG) potassium channel, sequence (Q12809 whole entry, looked up): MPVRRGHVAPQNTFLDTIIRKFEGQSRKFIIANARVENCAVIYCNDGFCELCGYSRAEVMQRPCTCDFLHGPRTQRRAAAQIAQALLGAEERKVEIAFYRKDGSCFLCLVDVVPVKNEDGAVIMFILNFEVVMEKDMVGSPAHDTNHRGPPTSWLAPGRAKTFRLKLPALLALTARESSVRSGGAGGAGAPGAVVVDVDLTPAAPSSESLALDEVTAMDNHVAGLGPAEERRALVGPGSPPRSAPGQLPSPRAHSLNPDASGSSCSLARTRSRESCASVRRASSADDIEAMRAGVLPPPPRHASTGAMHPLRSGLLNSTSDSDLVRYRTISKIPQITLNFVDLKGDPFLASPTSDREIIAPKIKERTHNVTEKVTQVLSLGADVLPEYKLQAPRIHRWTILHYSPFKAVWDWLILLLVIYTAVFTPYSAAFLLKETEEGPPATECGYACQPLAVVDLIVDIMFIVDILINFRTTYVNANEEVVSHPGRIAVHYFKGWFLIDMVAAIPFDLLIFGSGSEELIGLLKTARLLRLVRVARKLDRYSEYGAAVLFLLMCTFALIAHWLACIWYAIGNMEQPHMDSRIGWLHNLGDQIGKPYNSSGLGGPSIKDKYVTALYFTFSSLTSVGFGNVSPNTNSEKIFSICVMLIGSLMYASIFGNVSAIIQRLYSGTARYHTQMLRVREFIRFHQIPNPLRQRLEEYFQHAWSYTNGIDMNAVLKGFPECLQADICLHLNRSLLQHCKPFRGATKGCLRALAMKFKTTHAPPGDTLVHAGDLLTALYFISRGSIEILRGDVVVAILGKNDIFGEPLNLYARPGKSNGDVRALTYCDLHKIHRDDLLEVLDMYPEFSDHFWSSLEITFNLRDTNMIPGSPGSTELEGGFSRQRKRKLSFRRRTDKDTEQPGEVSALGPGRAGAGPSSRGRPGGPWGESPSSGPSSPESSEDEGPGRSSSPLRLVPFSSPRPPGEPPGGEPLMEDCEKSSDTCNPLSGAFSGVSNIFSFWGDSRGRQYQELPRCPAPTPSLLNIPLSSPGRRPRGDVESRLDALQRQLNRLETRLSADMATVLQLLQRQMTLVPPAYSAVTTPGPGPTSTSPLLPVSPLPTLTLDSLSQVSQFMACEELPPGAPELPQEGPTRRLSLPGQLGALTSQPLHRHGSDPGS
For `CC(=O)NNC(=O)CCn1c2c(c3ccccc31)CCCC2`, the “hERG current change (%, negative = inhibition) at 10uM” value was 9.01%. In the case of `Cc1cc(C(=O)N2CCOCC2)n(-c2ccccc2)n1`, the “hERG current change (%, negative = inhibition) at 10uM” value was 3.67%. With `CCOC(=O)C1(CC2CCCCO2)CCN(S(=O)(=O)c2ccccc2)CC1` (stereo not drawn) the “hERG current change (%, negative = inhibition) at 10uM” value was 9.64%. In the case of `Cc1oc(-c2ccccc2)cc1C(=O)Nc1cccc2ccccc12`, the “hERG current change (%, negative = inhibition) at 10uM” value was 12.1%. In the case of `Cc1c(NC(=O)C(C)OC(=O)c2cccc(S(=O)(=O)N(C)C)c2)c(=O)n(-c2ccccc2)n1C` (stereo not drawn), the “hERG current change (%, negative = inhibition) at 10uM” value was 22.7%. `CCOC(=O)CNC(=O)C(CC(N)=O)NC(=O)OC(C)(C)C` (stereo not drawn) (Boc-[ξN]-Gly-OEt) was tested, and the “hERG current change (%, negative = inhibition) at 10uM” value was 20.3%. In the case of `O=C(CNC1CCCCC1)NN=C(c1ccccc1)c1ccccc1`, the “hERG current change (%, negative = inhibition) at 10uM” value was -59.8%. For `Cc1ncoc1C(=O)Nc1cccc(Cl)c1C`, the “hERG current change (%, negative = inhibition) at 10uM” value was -7.25%. For `COc1cccc(NC(=O)Nc2cnccn2)c1`, the “hERG current change (%, negative = inhibition) at 10uM” value was 6.34%. With `Cc1cc(N2CCC(N(C)C3CCCC3)CC2)nc2cc(O)ccc12` the “hERG current change (%, negative = inhibition) at 10uM” value was -14.7%. In the case of `COCCN=c1scc(-c2cccs2)n1/N=C/c1ccc(O)c(O)c1O`, the “hERG current change (%, negative = inhibition) at 10uM” value was 6.24%. In the case of `CN1CCN(C(=O)/C(=C\c2cccs2)NC(=O)c2ccco2)CC1`, the “hERG current change (%, negative = inhibition) at 10uM” value was -67.4%. `O=C(Nc1ccccc1)N(C1=NCCCCS1)c1cccc2ccccc12` was tested, and the “hERG current change (%, negative = inhibition) at 10uM” value was -5.15%. With `CCN1CCN(Cc2ccc(OC)c(OCc3ccccc3)c2)CC1` the “hERG current change (%, negative = inhibition) at 10uM” value was -41.9%. `O=C(c1ccc(S(=O)(=O)c2cccc(Cl)c2)c([N+](=O)[O-])c1)N1CCN(c2ccccn2)CC1` was tested, and the “hERG current change (%, negative = inhibition) at 10uM” value was -15.8%. With `COc1ccc(OC(C)C(=O)N2CCc3ccccc3C2)cc1` (stereo not drawn) the “hERG current change (%, negative = inhibition) at 10uM” value was -12.7%. With `CC(C)CCNC(=O)c1cc(-c2ccco2)nc2ccccc12` the “hERG current change (%, negative = inhibition) at 10uM” value was 6.45%. In the case of `Cc1ccc(C(=O)OCC(=O)c2ccccc2)cc1`, the “hERG current change (%, negative = inhibition) at 10uM” value was 14.3%. `CCCC(c1nnnn1C(C)(C)C)N1CCN(c2ccccc2)CC1` (stereo not drawn) was tested, and the “hERG current change (%, negative = inhibition) at 10uM” value was -11.7%. `COc1ccc2c(c1)C(C)=CC(C)(C)N2C(=O)C(C)N1C(=O)c2ccccc2C1=O` (stereo not drawn) was tested, and the “hERG current change (%, negative = inhibition) at 10uM” value was -31.6%. In the case of `COCCCNC(=O)C(=O)NC1CCCCC1C` (stereo not drawn), the “hERG current change (%, negative = inhibition) at 10uM” value was 22.8%. With `O=C(O)c1ccc(S(=O)(=O)c2ccc3c(c2)C(=O)N(c2ccccc2[N+](=O)[O-])C3=O)cc1` the “hERG current change (%, negative = inhibition) at 10uM” value was 17.6%. For `CCCc1cc(C(=O)Nc2cccc3ccccc23)n(C)n1`, the “hERG current change (%, negative = inhibition) at 10uM” value was 0.334%. For `O=C(Nc1ccccc1Oc1ccccc1)c1cnccn1`, the “hERG current change (%, negative = inhibition) at 10uM” value was -1.09%. For `Cc1ccc(Cn2ccc(NC(=O)c3cc(-c4ccc(Cl)cc4)on3)n2)cc1`, the “hERG current change (%, negative = inhibition) at 10uM” value was 17.3%. For `CCCCCn1nc(C)c(/C=N\NC(=O)c2cc(C)oc2C)c1C`, the “hERG current change (%, negative = inhibition) at 10uM” value was -65.5%. `CCC(CC)n1[nH]c(=O)cc1N` was tested, and the “hERG current change (%, negative = inhibition) at 10uM” value was 7.44%. In the case of `Cc1ccc(S(=O)(=O)NCCC(=O)NCCSc2ccc(Br)cc2)cc1`, the “hERG current change (%, negative = inhibition) at 10uM” value was -8.17%. With `Cc1ccc(C(=O)Nc2cc(C(F)(F)F)ccc2-n2cncn2)o1` the “hERG current change (%, negative = inhibition) at 10uM” value was -9.88%. With `CSc1nnc(-c2ccccc2)n1C` the “hERG current change (%, negative = inhibition) at 10uM” value was 5.22%. `COc1cc(C(=O)NC(C)c2cc(C)ccc2C)ccc1OCC(=O)N1CCOCC1` (stereo not drawn) was tested, and the “hERG current change (%, negative = inhibition) at 10uM” value was -21.6%. With `O=C(COc1ccc2c3c(c(=O)oc2c1)CCCC3)NCCCN1CCOCC1` the “hERG current change (%, negative = inhibition) at 10uM” value was -5.65%. With `COc1ccccc1NC(=O)Cn1c(CCC(=O)O)ccc1-c1ccccc1` the “hERG current change (%, negative = inhibition) at 10uM” value was 20.6%. `CCN(C(=S)NC(=O)Cc1ccc(OC)cc1)c1ccccc1` was tested, and the “hERG current change (%, negative = inhibition) at 10uM” value was 0.155%. For `CC1CCCC(NC(=O)c2cccc(N3CCCC3=O)c2)C1C` (stereo not drawn), the “hERG current change (%, negative = inhibition) at 10uM” value was -13.5%. With `NC1=NC(=O)/C(=C\c2cccs2)S1` the “hERG current change (%, negative = inhibition) at 10uM” value was 8.6%. `COc1ccccc1NC(=O)Cn1cnc2c1c(=O)n(C)c(=O)n2C` was tested, and the “hERG current change (%, negative = inhibition) at 10uM” value was 17.9%. `O=C(/C=C/c1cccc(F)c1)N1CCN(c2ccccn2)CC1` was tested, and the “hERG current change (%, negative = inhibition) at 10uM” value was -118%. `COc1nc(N(C)S(=O)(=O)c2ccc(C)cc2)nc(C)c1Br` was tested, and the “hERG current change (%, negative = inhibition) at 10uM” value was 18.8%. For `O=C(NCCN1CCCCC1)Nc1cccc(F)c1`, the “hERG current change (%, negative = inhibition) at 10uM” value was -3.3%. `CCOc1ccc(C(=O)NCC(=O)OCc2ccc(F)cc2Cl)cc1` was tested, and the “hERG current change (%, negative = inhibition) at 10uM” value was -5.03%. With `CCCCn1c(=O)c(CC(C)=O)nc2ccccc21` the “hERG current change (%, negative = inhibition) at 10uM” value was 0.233%. In the case of `CN(Cc1ccccc1)C(=O)COC(=O)C1CCN(S(=O)(=O)c2cccs2)CC1`, the “hERG current change (%, negative = inhibition) at 10uM” value was -53.4%. `CCCC(c1nnnn1Cc1ccc(F)cc1)N1CCN(CC)CC1` (stereo not drawn) was tested, and the “hERG current change (%, negative = inhibition) at 10uM” value was -53%. With `Cc1ccccc1Nc1nc(-c2sc(NC(=O)c3ccc([N+](=O)[O-])cc3)nc2C)cs1` the “hERG current change (%, negative = inhibition) at 10uM” value was 24.4%.

— PMC4336329 (PLoS ONE, 2015)
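Further: peak tail current of the secondary pulse compared with the same well before compound.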
